Laboratory results reported in patent US20230287084A1 (35PHARMA, published 2023).

T1: activin A (UniProt P08476 311-426)
T1 sequence (looked up): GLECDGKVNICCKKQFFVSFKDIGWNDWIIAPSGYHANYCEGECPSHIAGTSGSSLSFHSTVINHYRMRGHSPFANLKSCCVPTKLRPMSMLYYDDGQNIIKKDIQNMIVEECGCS

T2: activin B (UniProt P09529 293-407)
T2 sequence (looked up): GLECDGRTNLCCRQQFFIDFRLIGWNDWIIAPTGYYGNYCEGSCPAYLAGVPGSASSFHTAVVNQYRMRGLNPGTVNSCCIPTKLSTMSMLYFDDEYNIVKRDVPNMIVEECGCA

T3: GDF-8 (UniProt O14793 267-375)
T3 sequence (looked up): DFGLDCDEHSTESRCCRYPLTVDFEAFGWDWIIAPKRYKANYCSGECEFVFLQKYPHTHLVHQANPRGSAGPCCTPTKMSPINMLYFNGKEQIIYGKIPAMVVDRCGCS

T4: GDF-11 (UniProt O95390 299-407)
T4 sequence (looked up): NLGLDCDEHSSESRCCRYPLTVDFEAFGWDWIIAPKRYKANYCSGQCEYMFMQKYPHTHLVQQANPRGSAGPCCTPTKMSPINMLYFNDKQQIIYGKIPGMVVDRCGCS

T5: BMP-9 (UniProt Q9UK05 320-429)
T5 sequence (looked up): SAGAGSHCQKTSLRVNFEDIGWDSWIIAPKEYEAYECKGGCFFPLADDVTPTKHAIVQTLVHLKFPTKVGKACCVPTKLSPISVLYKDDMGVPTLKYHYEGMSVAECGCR

T6: BMP-10 (UniProt O95393 317-424)
T6 sequence (looked up): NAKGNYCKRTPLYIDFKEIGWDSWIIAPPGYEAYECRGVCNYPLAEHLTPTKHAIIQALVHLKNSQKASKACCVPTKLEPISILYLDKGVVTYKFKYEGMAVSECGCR


Assays:
Experiment in all cases: cell-based or functional assay
activin A = molecular target: T1, activin A
activin B = molecular target: T2, activin B
GDF-8 = molecular target: T3, GDF-8
GDF-11 = molecular target: T4, GDF-11
BMP-9 = molecular target: T5, BMP-9
BMP-10 = molecular target: T6, BMP-10

Avg IC50, activin A neutralization (HEK293 TGFβ-reporter) (activin A) [nM] | Avg IC50, activin B neutralization (HEK293 TGFβ-reporter) (activin B) [nM] | Avg IC50, GDF-8 neutralization (HEK293 TGFβ-reporter) (GDF-8) [nM] | Avg IC50, GDF-11 neutralization (HEK293 TGFβ-reporter) (GDF-11) [nM] | Average IC50, BMP-9 neutralization (HepG2 BMP-reporter) (BMP-9) [nM] | Average IC50, BMP-10 neutralization (HepG2 BMP-reporter) (BMP-10) [nM] | % increase of potency relative to P624 (activin A) [%] | % increase of potency relative to P624 (activin B) [%] | % increase of potency relative to P624 (BMP-9) [%] | % increase of potency relative to P624 (BMP-10) [%] | Binder
5 | 2.8 | 1.1 | 1.2 | 8.1 | 3.9 | – | – | – | – | P123 (hActRIIB - D30Q, 3aa linker, IgG1 FcEM) (Fc fusion) ETRECIYYNANWELERTNQSGLERCEGEQQKRLHCYASWRNSSGTIELVKKGCWLDDFNCYDRQECVATEENPQVYFCCCEGNFCNERFTHLPEAGGPEVTYEPPPTG[omitted - human IgG1 Fc and a few adjoining residues]
> 1000 | > 1000 | > 1000 | > 1000 | > 1000 | > 1000 | – | – | – | – | P125 (hActRIIB - S38R, 3aa linker, IgG1 FcEM) (Fc fusion) ETRECIYYNANWELERTNQSGLERCEGEQDKRLHCYARWRNSSGTIELVKKGCWLDDFNCYDRQECVATEENPQVYFCCCEGNFCNERFTHLPEAGGPEVTYEPPPTG[omitted - human IgG1 Fc and a few adjoining residues]
> 1000 | > 1000 | 65 | 23 | > 1000 | > 1000 | – | – | – | – | P126 (hActRIIB - V75Q, 3aa linker, IgG1 FcEM) (Fc fusion) ETRECIYYNANWELERTNQSGLERCEGEQDKRLHCYASWRNSSGTIELVKKGCWLDDFNCYDRQECVATEENPQQYFCCCEGNFCNERFTHLPEAGGPEVTYEPPPTG[omitted - human IgG1 Fc and a few adjoining residues]
1.7 | 2.7 | 0.32 | 0.3 | 951 | 1.7 | – | – | – | – | P624 (hActRIIB - F58E, 3aa linker, IgG1 FcDL) (Fc fusion) ETRECIYYNANWELERTNQSGLERCEGEQDKRLHCYASWRNSSGTIELVKKGCWLDDENCYDRQECVATEENPQVYFCCCEGNFCNERFTHLPEAGGPEVTYEPPPTG[omitted - human IgG1 Fc and a few adjoining residues]
0.67 | 28 | 0.6 | 0.73 | 362 | 1 | – | – | – | – | P441 (hActRIIB - G27D + F58E, 3aa linker, IgG1 FcEM) (Fc fusion) ETRECIYYNANWELERTNQSGLERCEDEQDKRLHCYASWRNSSGTIELVKKGCWLDDENCYDRQECVATEENPQVYFCCCEGNFCNERFTHLPEAGGPEVTYEPPPTG[omitted - human IgG1 Fc and a few adjoining residues]
> 1000 | > 1000 | > 1000 | > 1000 | > 1000 | > 1000 | – | – | – | – | P127 (hActRIIB - F77D, 3aa linker, IgG1 FcEM) (Fc fusion) ETRECIYYNANWELERTNQSGLERCEGEQDKRLHCYASWRNSSGTIELVKKGCWLDDFNCYDRQECVATEENPQVYDCCCEGNFCNERFTHLPEAGGPEVTYEPPPTG[omitted - human IgG1 Fc and a few adjoining residues]
0.33 | 1.1 | 0.25 | 0.21 | 144 | 0.88 | – | – | – | – | P666 (hActRIIB - F58E, 19aa linker, IgG1 FcDL) (Fc fusion) ETRECIYYNANWELERTNQSGLERCEGEQDKRLHCYASWRNSSGTIELVKKGCWLDDENCYDRQECVATEENPQVYFCCCEGNFCNERFTHLPEAGGPEVTYEPPPTGGGGSGGGGSGGGGSGG[omitted - human IgG1 Fc and a few adjoining residues]
0.48 | 1.7 | 0.47 | 0.38 | 498 | 1.4 | – | – | – | – | P667 (hActRIIB - F58E, 39aa linker, IgG1 FcDL) (Fc fusion) ETRECIYYNANWELERTNQSGLERCEGEQDKRLHCYASWRNSSGTIELVKKGCWLDDENCYDRQECVATEENPQVYFCCCEGNFCNERFTHLPEAGGPEVTYEPPPTGGGGSGGGGSGGGGSGGGGSGGGGSGGGGSGGGGSGG[omitted - human IgG1 Fc and a few adjoining residues]
0.43 | 1.2 | 0.29 | 0.31 | 373 | 0.98 | 295 | 129 | 153 | 77 | P622 (hActRIIB - F58E, 14aa linker, IgG1 FcDL) (Fc fusion) ETRECIYYNANWELERTNQSGLERCEGEQDKRLHCYASWRNSSGTIELVKKGCWLDDENCYDRQECVATEENPQVYFCCCEGNFCNERFTHLPEAGGPEVTYEPPPTGGGGSGGGGSGG[omitted - human IgG1 Fc and a few adjoining residues]
2 | 8.8 | 1.4 | 0.85 | 36 | 2.4 | – | – | – | – | P687 (hActRIIB - F58D, 14aa linker, IgG1 FcDL) (Fc fusion) ETRECIYYNANWELERTNQSGLERCEGEQDKRLHCYASWRNSSGTIELVKKGCWLDDDNCYDRQECVATEENPQVYFCCCEGNFCNERFTHLPEAGGPEVTYEPPPTGGGGSGGGGSGG[omitted - human IgG1 Fc and a few adjoining residues]
